Test results: publication PMC4336329 (PLoS ONE, 2015)
Out of some 310,000 compounds screened, about 2,200 (0.71%) showed an effect of 50% or more. Effects have a minus sign here. The list shows a part of the results.

target: human ether-à-go-go-related gene (hERG) potassium channel (human, UniProt Q12809); test: primary screen, population patch clamp on CHO cells stably expressing hERG
Sequence (Q12809 whole entry, looked up): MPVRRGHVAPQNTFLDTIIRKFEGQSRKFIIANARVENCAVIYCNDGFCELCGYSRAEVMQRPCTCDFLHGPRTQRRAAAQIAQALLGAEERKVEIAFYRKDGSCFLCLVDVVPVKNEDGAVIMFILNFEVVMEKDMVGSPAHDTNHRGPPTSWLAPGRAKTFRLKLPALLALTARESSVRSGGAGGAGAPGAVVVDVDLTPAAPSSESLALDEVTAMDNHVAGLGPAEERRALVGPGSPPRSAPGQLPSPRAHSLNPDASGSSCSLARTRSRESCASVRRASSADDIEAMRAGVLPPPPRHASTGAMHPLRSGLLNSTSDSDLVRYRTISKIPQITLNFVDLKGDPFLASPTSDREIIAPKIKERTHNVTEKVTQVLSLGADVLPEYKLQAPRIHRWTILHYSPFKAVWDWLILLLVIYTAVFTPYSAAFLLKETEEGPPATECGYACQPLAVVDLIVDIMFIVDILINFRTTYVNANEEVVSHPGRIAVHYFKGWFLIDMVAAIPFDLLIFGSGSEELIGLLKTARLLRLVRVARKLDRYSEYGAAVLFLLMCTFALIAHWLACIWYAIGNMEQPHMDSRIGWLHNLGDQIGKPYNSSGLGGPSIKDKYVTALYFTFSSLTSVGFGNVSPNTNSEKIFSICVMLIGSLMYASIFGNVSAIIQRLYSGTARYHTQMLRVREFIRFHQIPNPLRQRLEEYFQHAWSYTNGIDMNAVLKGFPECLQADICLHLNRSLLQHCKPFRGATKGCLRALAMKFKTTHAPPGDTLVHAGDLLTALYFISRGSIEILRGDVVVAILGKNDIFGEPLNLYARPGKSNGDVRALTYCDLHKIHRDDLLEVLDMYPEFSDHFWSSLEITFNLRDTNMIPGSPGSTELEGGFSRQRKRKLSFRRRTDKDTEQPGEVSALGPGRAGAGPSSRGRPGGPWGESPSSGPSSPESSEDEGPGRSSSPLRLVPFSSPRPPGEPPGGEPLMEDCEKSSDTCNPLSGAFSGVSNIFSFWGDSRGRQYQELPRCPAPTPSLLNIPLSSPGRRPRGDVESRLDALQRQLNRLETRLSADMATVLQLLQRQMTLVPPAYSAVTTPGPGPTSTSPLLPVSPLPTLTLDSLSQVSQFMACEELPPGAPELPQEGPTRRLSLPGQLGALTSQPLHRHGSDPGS

Structure (SMILES)	hERG current change (%, negative = inhibition) at 1uM
O=S(=O)(c1cccs1)N1CCC2(CC1)OCCO2	12.1%
COC(=O)c1ccccc1S(=O)(=O)N1Cc2cc([N+](=O)[O-])ccc2Oc2ccccc21	15.8%
O=c1[nH]c2cc(Cl)ccc2n1-c1ccccc1	8.22%
O=C(Cn1c(=O)[nH]c2ccsc2c1=O)NC1CCCCC1	6.32%
Nc1c(-c2cccs2)cnn1-c1nc(-c2ccc(Cl)cc2Cl)cs1	-10.9%
CC(C)(C)NC(=O)C(c1ccc(Cl)cc1)N(CCO)C(=O)c1snc(C(N)=O)c1N (centres unmarked)	6.64%
O=C1[C@H]2[C@@H](c3ccc(F)cc3)N3C(=O)N(c4ccc(Br)cc4)C(=O)[C@@]3(Cc3ccc(Cl)cc3)[C@H]2C(=O)N1C1CCCCC1	15.1%
COc1cc(NS(=O)(=O)c2ccc3[nH]c(=O)[nH]c3c2)cc(OC)c1	19.7%
CCN(C(=O)CSc1cc(C)c2ccccc2n1)c1c(N)n(Cc2ccccc2)c(=O)[nH]c1=O	12.8%
COc1ccc(/C=N/NC(=O)C(N)=O)c(OC)c1OC	13.2%
CCOc1ccc(CCNC(=O)c2nn(C)c3c2CS(=O)(=O)c2ccccc2-3)cc1	0.616%
Cc1ccc(/C=N\n2c(-c3ccccc3)n[nH]c2=S)s1	10.7%
CCCOc1ccc(C(=O)NC(=S)N2C[C@H]3C[C@H](C2)c2cccc(=O)n2C3)cc1	-2.76%
O=C(CC1CCCCC1)c1c(O)c2ccccc2oc1=O	-4.69%
COc1ccc(C(=O)NC(=S)N2CCC(C)CC2)cc1	14.3%
CCOc1ccc(NC(=S)N(CCOC)C(C)c2ccco2)cc1 (centres unmarked)	-2.26%
O=C(NCc1cccc(C(F)(F)F)c1)c1ccc(=O)[nH]c1	16.7%
COc1ccc(N(Cc2ccccc2)S(=O)(=O)c2cccc(C(=O)Nc3ccccn3)c2)cc1	-16.5%
Cc1noc(C(=O)Nc2cccnc2Cl)c1Cl	12.6%

Structure (SMILES)	hERG current change (%, negative = inhibition) at 1uM
CC1(C)CC=C(NNC(=O)c2cccnc2)C(=O)C1	19.6%
CCc1ccccc1NC(=S)N1CCN(c2ccccn2)CC1	10.6%
COc1ccc(Cl)cc1-c1n[nH]c(=S)o1	13.8%
COc1ccc(CNC(=O)[C@@H](NC(=O)C2CCN(S(=O)(=O)c3ccccc3)CC2)C(C)C)cc1	25%
COCCCn1nnnc1SCC(=O)N1c2ccccc2CC1C (centres unmarked)	22.5%
C=CCc1c(C)nc(-c2ccccc2)nc1N/N=C/c1ccncc1	-10.2%
O=C1NCCCC1C(=O)N/N=C/c1ccc([N+](=O)[O-])cc1 (centres unmarked)	11.1%
O=C(NC1CCCCC1)N1CCCCCCC1	12.1%
CN(C)C(=O)Oc1cc(=O)n2c3c(cccc13)CCC2	12.4%
S=C1NC[C@H](CC2CCCCC2)N1CCc1cccc2ccccc12	13.2%
Cc1ccc(CSc2ccc(-c3ccco3)nn2)cc1	8.32%
CCCN(CCC)C1Sc2ccc(C(=O)OC)cc2NC1=O (centres unmarked)	-11%
COC(=O)C1=C(c2cc3ccccc3o2)C[C@@H]2CC[C@H]1N2C(=O)NCc1ccc(F)cc1	3.38%
COc1ccccc1N1CCN(C(=O)CN(c2ccc(C)c(C)c2)S(C)(=O)=O)CC1	3.23%
O=C(Nc1ccnn1C1CCN(Cc2ccc(CO)o2)CC1)c1ccccc1	-0.976%
CCCN(CC(=O)Nc1ccccc1OC)C(=O)c1ccc(S(=O)(=O)NCc2ccco2)cc1	3.59%
Cc1ccc2cc(CCNC(=O)c3ccc(S(=O)(=O)N4CCOCC4)cc3)c(=O)[nH]c2c1	-21.8%
COC(=O)c1ccc(C)c(NC(=O)C2COc3ccccc3O2)c1 (centres unmarked)	10.7%
O=C(Cn1nc(Cc2ccncc2)c2ccccc2c1=O)Nc1cccnc1Cl	4.36%

Structure (SMILES)	hERG current change (%, negative = inhibition) at 1uM
CCN1CCCC1CNCc1ccccc1OCc1ccc(F)cc1.Cl (centres unmarked)	-21.4%
COc1cccc(NC(=O)NNC(=O)CCc2ccc(O)c(O)c2)c1	17.2%
O=C(CSc1nnc(NC(=O)c2cccc(F)c2)s1)NC1CCCC1	13%
CCOc1ccc(/C=N/NC(=O)c2ccc(O)cc2)cc1CN1CC2CC(C1)c1cccc(=O)n1C2 (centres unmarked)	8.24%
COC(=O)CSc1nc2ncccc2[nH]1	-0.295%
O=C(CCC(=O)OCc1ccc([N+](=O)[O-])cc1)Nc1ccc(F)cc1	10.4%
CCc1ccc(N2C(=O)CC(N3CCC(C(=O)OC)CC3)C2=O)cc1 (centres unmarked)	4.68%
CC1(C)NCCN2C(=O)CSC21.Cl (centres unmarked)	10.3%
CC1(c2nnc(-c3ccncc3)o2)CC(c2cccnc2)=NO1 (centres unmarked)	22.1%
O=C(/C=C/c1ccc(N2CCC(c3ccccc3)=N2)cc1)c1ccccc1	1.77%
O=C(COC(=O)CNC(=O)c1ccccc1)NCCc1ccccc1	-0.342%
CCC1CCCCN1C(=O)COC(=O)CSc1ccc(C(N)=O)cc1[N+](=O)[O-] (centres unmarked)	4.3%
CCc1ccc(CN2CCN(C(=O)c3ccco3)CC2)cc1.O=C(O)C(=O)O	5.48%
O=C(OCCN1CCN(c2ncc(C(F)(F)F)cc2Cl)CC1)c1ccc(Cl)cc1	12%
CCOC(=O)c1[nH]ncc1CN1CCCC(C(=O)c2ccc(C(C)(C)C)cc2)C1 (centres unmarked)	6.55%
COc1ccc(NC(=O)CSc2nnc(Cc3ccc(C)cc3)c(=O)n2N)cc1	3.26%
Cc1onc(-c2ccccc2Cl)c1C(=O)Nc1ccc(-c2nnc3n2CCCCC3)cc1	3.11%
Cc1nccn1CCN(C)Cc1cn(Cc2ccccc2)nc1-c1ccc2c(c1)OCO2	-8.22%
